Laboratory results as given in the BET-seq Pho4 binding data (Le et al. 2018).
This is one part of the list. These are noisy estimates, calculated here from bound and input reads.

target: T1, Pho4 (S. cerevisiae) (UniProt P07270); experiment: relative binding free energy (BET-seq); higher = weaker binding; conditions: reference: library average
T1 sequence: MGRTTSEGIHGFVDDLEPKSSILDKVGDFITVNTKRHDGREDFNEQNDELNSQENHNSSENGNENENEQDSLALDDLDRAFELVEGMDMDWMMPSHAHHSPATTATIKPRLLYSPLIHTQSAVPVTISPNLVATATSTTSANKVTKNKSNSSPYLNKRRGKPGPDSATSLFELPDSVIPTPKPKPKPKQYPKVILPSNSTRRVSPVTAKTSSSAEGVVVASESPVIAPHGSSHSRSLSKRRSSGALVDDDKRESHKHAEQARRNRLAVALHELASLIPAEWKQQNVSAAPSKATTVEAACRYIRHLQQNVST

Sequence | relative binding free energy
ATGGTCACGTGCGTAC | 0.09 kcal/mol
ATGAGCACGTGCGATG | -0.07 kcal/mol
TTGAGCACGTGTTGCT | -0.05 kcal/mol
CGTCGCACGTGTTGGG | 0 kcal/mol
TTCTACACGTGTGGTA | 0.11 kcal/mol
TGGGCCACGTGGGGAA | -0.1 kcal/mol
AAGGGCACGTGAACGT | -0.01 kcal/mol
CGTTTCACGTGGGGGT | 0.17 kcal/mol
GTCGGCACGTGTGATG | 0.12 kcal/mol
GCTGGCACGTGTTAGT | 0.11 kcal/mol
CAGGTCACGTGAGAGT | 0.22 kcal/mol
TTGTGCACGTGATGGA | 0.06 kcal/mol
TTGTACACGTGCGATA | 0.16 kcal/mol
GTATGCACGTGAGTTA | 0.18 kcal/mol
CTTGACACGTGGGGAG | -0.05 kcal/mol
AGCATCACGTGGGGGC | 0.06 kcal/mol
GTTGTCACGTGTTATC | 0.25 kcal/mol
TTTATCACGTGAGGGT | 0.34 kcal/mol
AGTTGCACGTGTTTGA | -0.1 kcal/mol
TTAAACACGTGAGAGT | 0.33 kcal/mol
GTTAGCACGTGGGTTA | -0.28 kcal/mol
AGGGGCACGTGTTTCT | -0.12 kcal/mol
ATGCACACGTGGTGGA | -0.1 kcal/mol

Sequence | relative binding free energy
GGTTCCACGTGGTCTT | 0.09 kcal/mol
GGTGGCACGTGCGTTC | -0.03 kcal/mol
TTATTCACGTGGTACG | 0.14 kcal/mol
GGGGCCACGTGGTGGT | -0.07 kcal/mol
CGATTCACGTGTGTTG | 0.15 kcal/mol
TATGGCACGTGGGGCA | -0.16 kcal/mol
TCTGGCACGTGGCTGG | -0.23 kcal/mol
TTTGCCACGTGGGTTC | -0.04 kcal/mol
GTGTTCACGTGGTGCA | 0.22 kcal/mol
GGTGTCACGTGATAGA | 0.3 kcal/mol
AAAATCACGTGATGGG | 0.31 kcal/mol
TGTAGCACGTGTTCGG | -0.03 kcal/mol
ACTTTCACGTGGGCGT | 0.12 kcal/mol
AGGTGCACGTGGGATT | -0.18 kcal/mol
GCTTGCACGTGCAGGG | -0.02 kcal/mol
TGGTTCACGTGCGTCG | 0.05 kcal/mol
TGGCCCACGTGGGGTT | -0.29 kcal/mol
GGAGGCACGTGTTGTA | -0.11 kcal/mol
AATAACACGTGCGGTG | -0.05 kcal/mol
GTGCGCACGTGAGGCT | 0.08 kcal/mol
TTTGTCACGTGTAGGG | 0.16 kcal/mol
ATAGCCACGTGTAGGT | -0.14 kcal/mol
TAGCTCACGTGAGGTT | 0.36 kcal/mol

Sequence | relative binding free energy
AGCGGCACGTGGGATA | -0.19 kcal/mol
GGTGTCACGTGTACGA | 0.06 kcal/mol
ATTGTCACGTGCCTTG | -0.03 kcal/mol
GTACACACGTGGGGTA | 0.06 kcal/mol
GTCGTCACGTGTGTTT | 0.18 kcal/mol
GTTGTCACGTGAAGTA | 0.29 kcal/mol
TGATTCACGTGGTATG | 0.19 kcal/mol
AGGTGCACGTGAGGTC | 0.07 kcal/mol
ATGCGCACGTGGGATT | -0.23 kcal/mol
TCACGCACGTGGGTGG | -0.26 kcal/mol
TATGTCACGTGTTAGA | -0.02 kcal/mol
GGTGCCACGTGTGGAT | 0.04 kcal/mol
TGGAGCACGTGTTATA | -0.16 kcal/mol
TTGTGCACGTGCGGGA | -0.06 kcal/mol
GGGTTCACGTGGTCGT | 0.25 kcal/mol
ATGGACACGTGATGAG | 0.32 kcal/mol
GGTTCCACGTGGCGTG | 0.07 kcal/mol
CTTTTCACGTGTTTAG | 0.22 kcal/mol
TTTGGCACGTGTTCGC | -0.13 kcal/mol
CCATGCACGTGAGGGT | 0.18 kcal/mol
CTCTACACGTGGGGGT | -0.06 kcal/mol
TTATACACGTGTTGGA | 0.02 kcal/mol
TATTTCACGTGGTGCT | 0.24 kcal/mol

Sequence | relative binding free energy
AGTCTCACGTGTTGGG | 0.27 kcal/mol
TGCGGCACGTGGACAG | -0.07 kcal/mol
AGGTACACGTGTGGGA | 0.15 kcal/mol
AGGATCACGTGTATGG | 0.13 kcal/mol
GCGGGCACGTGGTAGT | -0.09 kcal/mol
GGGAGCACGTGCCTGG | -0.12 kcal/mol
AGACCCACGTGGGGGG | -0.29 kcal/mol
TTGGGCACGTGCGATT | -0.16 kcal/mol
CGTTGCACGTGTTAAT | 0 kcal/mol
GGATTCACGTGAGTTA | 0.41 kcal/mol
TGTCGCACGTGAGACG | 0.27 kcal/mol
GTTGACACGTGGGCGA | -0.07 kcal/mol
TGTCTCACGTGTCGGG | 0.22 kcal/mol
GCTGACACGTGCGTGT | 0.04 kcal/mol
TATTTCACGTGGCTAA | 0.19 kcal/mol
AGTGTCACGTGAGCGT | 0.21 kcal/mol
TGCGTCACGTGGTGAA | 0 kcal/mol
ATAACCACGTGTTGTG | -0.15 kcal/mol
AATCGCACGTGTCGGG | 0.04 kcal/mol
GGATGCACGTGAGGGC | 0.33 kcal/mol
GCGGTCACGTGGTCAG | 0.07 kcal/mol
TGGAGCACGTGGTCGA | -0.11 kcal/mol
TCAGTCACGTGTTGTG | 0.07 kcal/mol

Sequence | relative binding free energy
TGTTGCACGTGGCTTG | -0.04 kcal/mol
GATTTCACGTGGGCGG | 0.21 kcal/mol
ATGTGCACGTGGGGAT | -0.18 kcal/mol
GTATACACGTGACTTG | 0.21 kcal/mol
GGTATCACGTGCAATT | 0.2 kcal/mol
AGGAGCACGTGATTTT | 0.07 kcal/mol
TGATCCACGTGGGCTG | -0.03 kcal/mol
TCGTTCACGTGTGTAT | 0.3 kcal/mol
TAGAGCACGTGGGGGA | -0.27 kcal/mol
AACGTCACGTGGTTGA | 0.07 kcal/mol
TGCCACACGTGGGGGG | -0.09 kcal/mol
AAGGTCACGTGTCGGG | 0.08 kcal/mol
TGTTACACGTGTGAGT | 0.31 kcal/mol
GGAAGCACGTGAGAAT | 0.39 kcal/mol
CTGTTCACGTGGGTCA | 0.03 kcal/mol
GTATACACGTGGGTTA | -0.08 kcal/mol
GTCTTCACGTGTGAGT | 0.24 kcal/mol
TCGTACACGTGGGGCT | 0 kcal/mol
GTGTTCACGTGAGTCC | 0.47 kcal/mol
CTTACCACGTGTGTGG | 0.05 kcal/mol
TAATTCACGTGGTTGG | 0.32 kcal/mol
TGCGACACGTGAGTTT | 0.35 kcal/mol
TAGTTCACGTGGTGAG | 0.28 kcal/mol
